In the supplement of paper PMC8047034:
Counter-ions that a name gives are not always drawn. The list shows a part of the results. Many values rest on one well or one pass, so single values are uncertain.

Test system: Ov4Carbo
Experiment: log2 surviving fraction (library drug vs vehicle, or drug + carboplatin vs carboplatin alone; relative to plate median); ovarian cancer lines: OVCAR4 is platinum-sensitive and Ov4Carbo platinum-resistant; higher = more cell survival
Conditions: library drug concentration 10 µM; 7 days; carboplatin co-treatment 0 µM

SMILES	log2 surviving fraction
C[C@@H]1CC(=O)NN=C1c1ccc(NN=C(C#N)C#N)cc1 [Levosimendan]	-0.369
CO[C@H]1/C=C/O[C@@]2(C)Oc3c(C)c(O)c4c(O)c(c5c(nc6cc(C)ccn65)c4c3C2=O)NC(=O)/C(C)=C\C=C\[C@H](C)[C@H](O)[C@@H](C)[C@@H](O)[C@@H](C)[C@H](OC(C)=O)[C@@H]1C [Rifaximin (Xifaxan)]	-0.101
O=C(O)c1cc(/N=N/c2ccc(S(=O)(=O)Nc3ccccn3)cc2)ccc1O [Sulfasalazine (Azulfidine)]	0.898
Cc1cccc(Nc2ccccc2C(=O)O)c1C [Mefenamic acid]	0.21

Same assay, conditions: library drug concentration 10 µM; 7 days; carboplatin co-treatment 5 µM

SMILES	log2 surviving fraction
CCOC(=O)C(C)(C)Oc1ccc(Cl)cc1 [Clofibrate (Atromid-S)]	0.314
C[C@@H]1CCN(C(=O)CC#N)C[C@@H]1N(C)c1ncnc2[nH]ccc12	-0.5
CCC[C@@H]1C[C@@H](C(=O)N[C@@H]([C@H]2O[C@H](SC)[C@H](O)[C@@H](O)[C@H]2O)[C@H](C)Cl)N(C)C1 [Clindamycin hydrochloride (Dalacin)]	0.585
CO[C@H]1C(=O)[C@]2(C)[C@@H](OC)C[C@H]3OC[C@@]3(OC(C)=O)[C@H]2[C@H](OC(=O)c2ccccc2)[C@]2(O)C[C@H](OC(=O)[C@H](O)[C@@H](NC(=O)OC(C)(C)C)c3ccccc3)C(C)=C1C2(C)C [Cabazitaxel (Jevtana)]	-4.89
CN(CCOc1ccc(NS(C)(=O)=O)cc1)CCc1ccc(NS(C)(=O)=O)cc1 [Dofetilide (Tikosyn)]	0.17
